Laboratory results from PubChem BioAssay AID1476 (National Center for Advancing Translational Sciences (NCATS), 2009).
Hit rate of the full screen: of about 200,000 compounds, about 4,500 (2.2%) were called active. Inconclusive results, whose numbers are uncertain, are shown with a selection of clear calls. Calls come from the whole dose curve; as a rule, active = well fitted inhibition curve with a large enough effect; inconclusive = small, poorly fitted or top-dose-only effect, or effect the other way; inactive = flat fitted curve, though single readings scatter. A potency beside an inconclusive call is a rough fit, not a confirmed value.

What follows are molecules tested against Cruzipain (Trypanosoma cruzi) (UniProt P25779) (assay: qHTS Assay for Promiscuous and Specific Inhibitors of Cruzain (without detergent)). Conditions: purified cruzain, Z-FR-AMC fluorescence, no detergent.
How it was run: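 Purified cruzain at 1.5 nM, pre-incubated 15 min with compound at room temperature in 100 mM sodium acetate pH 5.5, 5 mM DTT, 0.00005% Triton X-100. Reaction started with 2 uM Z-FR-AMC; AMC fluorescence increase over 60 s gives rate.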
Note: nearly all actives have a fitted effect of over 40% in size.
Potency is the fitted concentration of half-maximal effect; tags give direction and shape of the fitted curve.
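Throughout, for max response, negative = inhibition: plate controls were enzyme without inhibitor for no effect and buffer without enzyme for full effect.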

UniProt P25779, sequence (P25779 whole entry, looked up): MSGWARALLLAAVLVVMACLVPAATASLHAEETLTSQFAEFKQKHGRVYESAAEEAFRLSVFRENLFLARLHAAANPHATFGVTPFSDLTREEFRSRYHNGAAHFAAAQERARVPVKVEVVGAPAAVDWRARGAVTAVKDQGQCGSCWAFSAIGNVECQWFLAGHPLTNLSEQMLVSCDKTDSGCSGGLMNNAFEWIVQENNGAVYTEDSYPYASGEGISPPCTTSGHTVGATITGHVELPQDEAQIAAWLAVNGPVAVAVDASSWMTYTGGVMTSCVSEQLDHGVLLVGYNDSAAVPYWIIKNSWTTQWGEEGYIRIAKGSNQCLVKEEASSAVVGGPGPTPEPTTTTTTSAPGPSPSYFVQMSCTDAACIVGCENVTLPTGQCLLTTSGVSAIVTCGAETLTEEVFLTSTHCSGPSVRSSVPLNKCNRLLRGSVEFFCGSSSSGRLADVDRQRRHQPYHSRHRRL

SMILES	Potency	max response, negative = inhibition
CC1CCCC(NC(=O)COC(=O)[C@@H]2CC(O)CN2S(=O)(=O)c2ccc3c(c2)OCCO3)C1C (stereo partly drawn)	inconclusive: 39.8 µM [activator, single point]	–
O=C(Nc1ccc(Cl)cc1)Nc1nnc(Cc2ccc([N+](=O)[O-])cc2)s1	active: 7.94 µM	–
COc1ccc(/C=N/NC(=O)c2ccc(NC(=O)c3ccccc3Br)cc2)cc1	inconclusive: 31.6 µM [inhibitor, single point]	–
COc1ccc(OC)c(N(CC(=O)N2CCN(c3cc(Cl)ccc3C)CC2)S(C)(=O)=O)c1	inconclusive: 31.6 µM [activator, partial curve]	–
CCCOc1ccc2oc(=O)c3c(c2c1)CCCN3C(=O)CN1CCN(C(=O)c2ccco2)CC1	inconclusive: 39.8 µM [activator, single point]	–
COc1ccc(Cl)cc1NC(=O)NCCn1c(=O)oc2ccc(C)cc21	inconclusive: 39.8 µM [activator, single point]	–
O=C(Cc1cccs1)N1CCCC(c2nc3c(nnn3Cc3ccccc3Cl)c(=O)[nH]2)C1 (stereo not drawn)	inconclusive: 39.8 µM [activator, single point]	–
Nc1ccccc1[N+](=O)[O-]	–	inactive: -12.2%
CCn1cc2nc(SCc3cccc(C(F)(F)F)c3)n(Cc3ccc(Cl)cc3)c(=O)c2n1	–	inactive: -2.13%
Cc1ccc(Cl)cc1-n1nnc(-c2nsc(NC(=O)c3ccccc3Cl)n2)c1C	active: 3.16 µM	–
CCc1ccc(OCC(=O)NNC(=O)CSc2ncnc3sc(C)c(C)c23)cc1	active: 20 µM	–
COC(=O)c1ccccc1NC(=S)N(Cc1ccc2c(c1)OCO2)Cc1cc2cc(OC)ccc2[nH]c1=O	active: 10 µM	–
Cc1ccc(Cn2c(=O)n(CCC(=O)NCc3ccc4c(c3)OCO4)c(=O)c3ccccc32)cc1	inconclusive: 39.8 µM [inhibitor, single point]	–
Cc1ccc(NC(=O)CS(=O)CC(=O)NCCCc2ccccc2)cc1Cl (stereo not drawn)	inconclusive: 39.8 µM [inhibitor, single point]	–
CC1CCCCN1c1c(S(=O)(=O)c2ccc(Cl)cc2)cnc2ccccc12 (stereo not drawn)	–	inactive: 0.779%
CCOC(=O)c1cc(-c2ccccc2)nc2nc(N3CCCCC3)sc12	inconclusive: 25.1 µM [activator, single point]	–
COc1ccc(S(=O)(=O)N(CC(=O)N2CCOCC2)c2cc(Cl)ccc2OC)cc1OC	inconclusive: 31.6 µM [activator, single point]	–
CCN1CCN(Cc2c(O)c(Cl)cc3c(C)cc(=O)oc23)CC1	inconclusive: 3.98 µM [activator, single point]	–
